Laboratory results published in PubChem BioAssay AID2676 (National Center for Advancing Translational Sciences (NCATS), 2010).
The campaign covered roughly 370,000 compounds. About 1,100 (0.3%) were called active. This list was built around the results that the source calls inconclusive (neither active nor inactive); the mix of calls is not that of the screen. Calls follow the shape of the dose curve; as a rule, active = well fitted activation curve with a large enough effect; inconclusive = small, poorly fitted or top-dose-only effect; inactive = flat fitted curve, though single readings scatter. A potency beside an inconclusive call is a rough fit, not a confirmed value.

Each compound was assayed against Relaxin receptor 1 (Homo sapiens) (UniProt Q9HBX9) (assay: qHTS Assay for Agonists of the Relaxin Receptor RXFP1). Conditions: HEK293T-RXFP1 cAMP TR-FRET, 30 min; series mostly up to 57.5 µM.
Procedure, shortened: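 HEK293 cells stably expressing RXFP1, treated 30 min at 37C with compounds plus PDE4 inhibitor Ro 20174; cAMP measured by HTRF TR-FRET. Normalized to buffer and 29 nM porcine relaxin; EC50 by Hill fit.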
Also: nearly all actives have a fitted effect of over 60% in size.
Potency is read from the fitted curve at half-maximal effect; tags tell the direction and shape of the fitted curve.

Sequence of UniProt Q9HBX9 (Q9HBX9 whole entry, looked up): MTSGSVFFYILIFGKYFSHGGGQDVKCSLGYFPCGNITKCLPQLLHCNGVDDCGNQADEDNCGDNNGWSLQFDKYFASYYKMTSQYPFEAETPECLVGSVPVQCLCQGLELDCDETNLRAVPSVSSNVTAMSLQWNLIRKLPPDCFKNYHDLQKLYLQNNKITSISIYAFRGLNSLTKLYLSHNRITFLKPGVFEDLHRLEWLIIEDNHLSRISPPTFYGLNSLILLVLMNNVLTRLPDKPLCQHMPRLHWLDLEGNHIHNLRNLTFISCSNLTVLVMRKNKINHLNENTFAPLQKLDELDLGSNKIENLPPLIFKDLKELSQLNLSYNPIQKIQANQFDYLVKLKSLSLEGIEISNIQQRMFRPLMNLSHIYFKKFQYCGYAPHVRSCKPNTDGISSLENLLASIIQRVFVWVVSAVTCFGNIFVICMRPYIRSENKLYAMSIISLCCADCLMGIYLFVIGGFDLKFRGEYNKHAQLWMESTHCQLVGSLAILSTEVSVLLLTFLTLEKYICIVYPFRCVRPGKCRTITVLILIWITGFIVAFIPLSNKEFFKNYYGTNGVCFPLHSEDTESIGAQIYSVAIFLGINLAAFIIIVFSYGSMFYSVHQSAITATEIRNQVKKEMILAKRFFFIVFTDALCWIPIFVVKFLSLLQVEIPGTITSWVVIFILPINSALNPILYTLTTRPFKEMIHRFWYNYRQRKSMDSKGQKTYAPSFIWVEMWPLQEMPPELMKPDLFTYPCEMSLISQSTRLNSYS

Potency, inactive:
Cc1cccc(NC(=O)C2CCN(S(=O)(=O)c3ccc4c(c3)CCCC(=O)N4)CC2)c1
Cc1cc(C)n(-c2nc3ccccc3c(=O)n2OCC(=O)N(C)C)n1
COc1ccc(OC)c(C2C(C#N)=C(N)Oc3c2c(C)nn3-c2cccc(Cl)c2)c1 (configuration not stated)
O=C(Nc1ccc(NC(=O)c2ccco2)cc1)c1ccco1
CC(=O)Nc1ccc(C(=O)c2ccccc2)cc1
CCCCN(C)CCn1c(=S)[nH]c2cc(OCC)c(OCC)cc2c1=O
CCc1nc(Nc2ccc3c(c2)OCCO3)c2oc3ccccc3c2n1
CC(=O)c1cccc(N(C(=O)CNC(=O)c2ccco2)C(C(=O)NC2CCCC2)c2ccc(C)o2)c1 (configuration not stated)
COc1cc(OC)c(NC(=O)c2c(C)oc3nc(C)nc(N4CCOCC4)c23)cc1Cl

Potency, inconclusive:
Cc1ccc(CNC(=O)c2sc3nc(-c4ccc(F)cc4)ccc3c2N)cc1 25.1 µM [activator, partial curve]
CCOC(=O)c1cnc2c(C)cc(Cl)cc2c1NCCc1ccc(OC)c(OC)c1 39.8 µM [activator, single point]
O=C(Cn1c(=O)c2cccn2c2ccccc21)NCCc1ccc(Cl)cc1 35.5 µM [activator, single point]
COc1cc2nc(NC(=O)c3ccco3)sc(=O)c2cc1OC 39.8 µM [activator, single point]
CCc1ccccc1NC(=O)Nc1cc(C(=O)NCc2ccc(OC)cc2)ccc1N1CCCC1 31.6 µM [activator, single point]
COc1ccccc1C1/C(=C(\O)c2ccc3c(c2)OCCO3)C(=O)C(=O)N1Cc1cccnc1 (configuration not stated) 25.1 µM [activator, partial curve]
C=CCOc1ccc(/C(O)=C2\C(=O)C(=O)N(CCOC)C2c2cccnc2)cc1 (configuration not stated) 25.1 µM [activator, partial curve]
O=c1cc(CN2CCN(S(=O)(=O)c3ccccc3)CC2)nc2sc(-c3ccccc3Cl)nn12 39.8 µM [activator, single point]
CC(Oc1ccccc1)C(=O)N1CCN(Cc2cc(=O)n3nc(-c4ccccc4Cl)sc3n2)CC1 (configuration not stated) 39.8 µM [activator, single point]
COc1ccc(-c2c(C#N)c(N)nc3c2c(=O)n(C)c(=O)n3C)cc1 39.8 µM [activator, single point]
Cc1[nH]c2ccccc2c1C(=O)CSc1nc2ccccc2c(=O)n1-c1ccccc1F 31.6 µM [activator, single point]
CSc1cc(-c2ccccc2)[nH]c(=O)c1C#N 15.8 µM [activator, partial curve]
Cn1cnc2c(=O)oc3ccc(S(=O)(=O)N4CCN(c5ccccc5F)CC4)cc3c21 35.5 µM [activator, single point]
O=C(Nc1nc2nccc(-c3ccccc3)n2n1)c1ccccc1 39.8 µM [activator, single point]
Cc1n[nH]c(=S)c2nn(-c3ccccc3F)c(C)c12 28.2 µM [activator, partial curve]
Cc1cccc(C(=O)Nc2ccc(OCc3cc(=O)n4ccsc4n3)cc2)c1 35.5 µM [activator, single point]
COc1ccc(C2C(C(=O)c3cccs3)=C(O)C(=O)N2c2cccc(C)n2)cc1 (configuration not stated) 28.2 µM [activator, partial curve]
CCc1ccc(NC(=O)c2c(C(=O)Nc3ccccc3)sc3nc(C)cc(=O)n23)cc1 39.8 µM [activator, single point]
O=c1[nH]cnc2c1sc1nc(C(F)F)cc(-c3ccccc3)c12 39.8 µM [activator, single point]
CCOC(=O)c1ccc(NC(=O)CSc2nc(-c3cccs3)cc(C(F)(F)F)c2C#N)cc1 3.55 µM [activator, partial curve]
Cc1cccc(NC(=O)C(C)n2cc([N+](=O)[O-])cn2)n1 (configuration not stated) 20 µM [activator, partial curve]
Cc1ccc(-n2c(SCC(=O)NCCC3=CCCCC3)nc3n[nH]c(C)c3c2=N)cc1Cl 35.5 µM [activator, single point]
O=c1c(Cc2ccccc2)c(O)c2cccc3c4c(n1c23)CCCC4 10 µM [activator, partial curve]
COc1cc(C(=O)N=c2sc3c(C)ccc(OC)c3n2C)cc(OC)c1OC 39.8 µM [activator, single point]
CCN(CC)CCNc1cc(C)c(C#N)c2nc3ccccc3n12 25.1 µM [activator, partial curve]
Cn1c(N)c(C(=O)COC(=O)CC2CC3CCC2C3)c(=O)n(C)c1=O (configuration not stated) 31.6 µM [activator, partial curve]
Cn1cnnc1SCC(=O)Nc1cc(S(=O)(=O)N2CCCCC2)ccc1Cl 14.1 µM [activator, partial curve]
CSCCC(NS(=O)(=O)c1ccc2c(c1)oc(=O)n2C)C(=O)N1CCN(c2ccc(C(C)=O)cc2)CC1 (configuration not stated) 39.8 µM [activator, single point]
COc1cccc(C(=O)NCC(=O)OCc2cc(=O)n3ccsc3n2)c1 22.4 µM [activator, partial curve]

Potency, active:
Cc1ccc(OCC(=O)Nc2ccc3nc(Nc4cccc(Cl)c4)cc(C)c3c2)cc1 14.1 µM
O=C(OCc1cccc([N+](=O)[O-])c1)c1cnccn1 22.4 µM
O=C(Nc1nc(-c2cccs2)c(C(=O)C(F)(F)F)s1)c1ccco1 25.1 µM
CCCC[C@]12Cc3cc(C#N)ccc3C(O1)c1c(cc(C)n(Cc3ccccc3)c1=O)O2 3.16 µM
